Values marked as one replicate rest on one cluster of the flow cell; about a third of the high ones do not repeat.
System: ATP
Assay: switch fluorescence ratio, 500 uM ATP over buffer (Cy3 cluster intensity, sum of 5 cycles each) (fold (ratio)); higher = stronger signal-on switching upon ATP binding; sequences stand for … in TCGTCGGCAGCGTCAGATGTGTATAAGAGACAGTTTTTTTTTTTTTTTTTTTTTTTTT…TC
Settings: aptamer strand: ATP DNA aptamer (quencher-CACCTGGGGGAGTATTGCGGAGGAAGG + anchor), 100 nM annealed; ATP concentration: 500 uM; one replicate
Method in brief: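 Imaging in selection buffer was followed by imaging after 15 min with 500 uM ATP at 22 °C, for Cy3-labelled switching-strand clusters annealed to 100 nM quencher-labelled ATP aptamer on a modified Illumina MiSeq flow-cell. Five of these buffer/ATP cycles ran, separated by NaOH stripping and re-annealing. The fluorescence ratio per cluster is summed target-cycle over summed buffer-cycle Cy3 intensity, averaged per switch-domain sequence; clusters outside 100-1000 RFU were removed.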
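Further: ATP exposure 15 min at 22 °C before imaging.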

Sequence | switch fluorescence ratio
TTCGTATGG | 0.997
TTTGAAAATC | 1.05
TGACTGCGGA | 1.24
AGAGCAAGTC | 1.24
TCTTACGCTG | 0.981
ACATCTTGTC | 1.07
CGGAATTGGA | 1.03
TGCATGTCCC | 1.31
AAAGAAATGG | 0.963
AGACTGTCCC | 1.03
ATGACTAGCT | 1.02
AACCTAAACC | 1.15
GTGTTAATAA | 1.06
CACTGCGGGA | 1.05
AGATTTAACT | 0.967
GGATTCAATA | 0.99
TATGACCCGG | 1.03
GTACCTACAC | 1.3
GAACGGGATG | 1.02
GATGACCGGT | 0.992
CCTTATTAAT | 1.07
CTGACAGACA | 1.08
TACTGGAAC | 1.07

Sequence | switch fluorescence ratio
CTGGAAAAGA | 1.03
AACAGGCTTT | 0.982
GGGGTAGTC | 0.948
TAGAATCACT | 0.982
TTTAGTAC | 1.08
CATATATGTT | 0.996
GAGAATTTTT | 0.975
CCGGTTTGCA | 1.37
GTCATCCTGG | 1.04
GGCCCATTC | 1.06
TATTGGGTAC | 1.02
ATTCAATTCT | 0.953
TAGGATAGCA | 1
GTTCATTAAG | 0.991
TTTGTCACTT | 1.02
TTGTTAAGCT | 1
TCCCCCAAAA | 1.04
GAAGGGCTCC | 1.04
TTCCCACAT | 1.02
TCCTGTATTT | 0.967
TTCGGATTTT | 0.994
CTCGTAAAAC | 2.82
CTACCTTTGG | 0.999

Sequence | switch fluorescence ratio
GTCCTGCGCC | 2.15
ACAAACGTCG | 1.26
ACTCTGACAG | 1.09
AGATATGGCG | 0.946
TCAGGTTGAG | 1.01
GGCCAAGGG | 1.01
GAAATCTATA | 1.02
GTGAATACGG | 1
CTTATGGGAG | 0.984
GTAAAGTCCA | 0.982
TAAGCATGTC | 1.13
AGAATAACGG | 1.07
TTCAAGAGAT | 0.995
AATTTCCACA | 1.02
TGCTCTGGGC | 1.04
AAAGTTATTC | 1.04
ACGTCACTAA | 1.52
TGTTTTTACG | 0.941
CATACGTTCA | 1.03
CCGGCTGCTA | 1.78
ACCTTCGTCT | 1.24
CCCGGACATC | 1.5
TTACTACTTC | 1.06

Sequence | switch fluorescence ratio
GGATACATTT | 0.989
GAAATCGGCA | 0.99
AGGTGCTAAA | 0.969
CCTGCTGACA | 1.1
CCTAGAGAAG | 1
GAGATTCGTT | 1
GGGTCCAGA | 0.98
CATCCTTGTC | 1.06
GTTCGGATTT | 1.01
CGCAGGGAAC | 1.5
AGGGCTCATC | 0.994
ACACTTCCCT | 1.07
GCTGAGAGCT | 0.982
GTCACCAATT | 1.01
TAATAGCT | 1.05
TCCGTTTGCA | 1.42
GGCATAGTAC | 1.15
GCCTGATTGT | 0.998
GGGAGTGCTG | 1.1
AAATGTGCAT | 0.945
CCTTTCAAAA | 1.04
CACACAACTA | 1.14
TTAACTGATG | 0.962

Sequence | switch fluorescence ratio
TATATCTGGG | 0.967
GTGTAGCACT | 1.06
TTGGGATTGC | 0.98
AAGATGTGCA | 0.908
CCTCCAAGCT | 4.19
CCGGCCATCA | 1.06
TTCCCCTTAC | 1.5
GGTTTGAATG | 1.05
CCTACACTAG | 1.15
TGGTTCACCT | 1.04
CCAAGCGAGC | 1.18
TAGAAGACTT | 1.01
CGCTAAGTCT | 1.36
TTCGATTTAG | 1
TAGATTATTT | 0.98
AATCCATGTG | 0.988
CGGGCCGTGC | 1.07
GATCTTTTTC | 0.962
TTTTGTATCT | 0.977
AAGTGGGATA | 0.98
CGGGTGACTG | 0.943
TAGCGGTTGA | 1
CTGGTTGCGT | 1.08

Sequence | switch fluorescence ratio
TGAGATTGCA | 1.05
CGCTTCAGTA | 0.985
CACTGGCAAT | 2.81
ATTGCTTGT | 1.01
AATCGGTCCC | 1.02
GCGCGAGAGG | 0.989
CGAGGGTGAT | 1.08
CATCGCGTGC | 1.24
TAGGGCGCG | 0.949
CATCGAGAGC | 0.958
CAAACGCTAG | 1.09
CCCTGAATGC | 2.28
TCTGAACTAT | 1.03
CTTCACGCAT | 3.72
AATGATTTCG | 0.964
TTATATTGCT | 1.01
GGGGCGGAAC | 1.08
TAAGGATAGG | 0.988
ACAGACGATA | 1.25
ATACATGGCA | 0.981
TGGTAGCCGA | 0.969
ACTTCGGGAG | 1.05
GGCATCTCAT | 1.01

Sequence | switch fluorescence ratio
AAAAGTAATA | 0.951
TACCAGAAGT | 0.991
TCTCTAAAGT | 1
ATCAGATCCG | 0.983
CGTTTGATT | 0.99
GTTGGGCTGC | 0.99
CAATGGGGAC | 0.996
CCACCACGGT | 2.02
ATTACACAGA | 1.03
TCTCGCGGCC | 1.11
GCTGCGTTGG | 1
GCGTGACCTT | 1.14
GGAGTTTACA | 0.984
TCAGAGTCGT | 1.02
CTGTCCTGT | 1.02
GTGGACGAGG | 0.961
ACATAGTAGT | 1.02
TGATAAATTC | 0.971
AAGCGGCAGG | 0.995

From the supplement of paper PMC10126150
